# Measured values reported in article PMC6919601, “Identification of Plasmodium dipeptidyl aminopeptidase allosteric inhibitors by high throughput screening” (PLoS ONE, 2019).
# About 230 (0.21%) of roughly 110,000 compounds showed an effect of 50% or more. This is one part of the list.
# Target: DPAP1 (Plasmodium falciparum, UniProt Q8IIJ9)
# Experiment: primary screen, percent inhibition; read by cleavage of a fluorogenic dipeptide substrate; higher = more effect of the substance
# Parameters: species or system P. falciparum D10 trophozoite lysates; single well
# 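Also: 30 min substrate incubation versus DMSO and 10 µM JCP410 controls.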
# Sequence of DPAP1 (Q8IIJ9 whole entry, looked up): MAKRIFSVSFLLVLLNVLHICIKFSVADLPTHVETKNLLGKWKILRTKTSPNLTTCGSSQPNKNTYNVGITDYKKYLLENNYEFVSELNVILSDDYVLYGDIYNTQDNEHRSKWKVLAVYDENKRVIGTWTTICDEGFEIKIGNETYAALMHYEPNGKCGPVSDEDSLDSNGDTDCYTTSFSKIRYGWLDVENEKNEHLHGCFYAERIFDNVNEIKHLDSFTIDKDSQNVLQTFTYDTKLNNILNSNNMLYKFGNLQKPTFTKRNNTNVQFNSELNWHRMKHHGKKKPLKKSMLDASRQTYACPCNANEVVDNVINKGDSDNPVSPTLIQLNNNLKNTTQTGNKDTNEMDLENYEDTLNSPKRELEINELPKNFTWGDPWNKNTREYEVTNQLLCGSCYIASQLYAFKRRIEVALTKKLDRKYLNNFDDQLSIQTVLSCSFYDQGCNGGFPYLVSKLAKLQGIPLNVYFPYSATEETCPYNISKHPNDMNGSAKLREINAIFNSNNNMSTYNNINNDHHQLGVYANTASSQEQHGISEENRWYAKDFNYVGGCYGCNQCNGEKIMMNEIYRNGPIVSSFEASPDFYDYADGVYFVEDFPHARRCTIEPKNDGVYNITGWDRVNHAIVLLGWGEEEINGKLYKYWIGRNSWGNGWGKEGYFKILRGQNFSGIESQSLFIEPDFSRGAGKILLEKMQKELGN
row,SMILES,% Inhibition @ 10 uM
1,COCCNC(=O)c1ccc(CS(=O)c2cccc(Cl)c2)o1 (stereo not shown),4.9%
2,CC(=O)Nc1ccc(C2C(C#N)=C(N)Oc3cc(O)ccc32)cc1 (stereo not shown),-3.85%
3,O=C(c1cc(-c2ccc(Cl)cc2)n[nH]1)N1CC=C(c2ccccc2)CC1,7.04%
4,COC(=O)[C@]1(C)C=C2C3=CC(=O)C4[C@@]5(C)CCC(O)C(C)(C)C5CC[C@@]4(C)[C@]3(C)CC[C@@]2(C)CC1 (stereo partly shown),-1.2%
5,O=C(Cn1c(=O)c2cccn2c2cccnc21)NC1CCCc2ccccc21 (stereo not shown),12.9%
6,Cc1c(CNC(=O)c2cnn3c(C(F)(F)F)cc(-c4ccc(Br)cc4)nc23)cnn1C,-5.57%
7,CCn1c2ccccc2c2nnc(NCc3ccccc3Cl)nc21,-3.42%
8,CC1CCN(CCCNC(=O)CCc2nnc3n(Cc4ccccc4)c(=O)c4ccccc4n23)CC1,5.68%
9,O=C(NCCC1=CCCCC1)c1ccc(CS(=O)Cc2cccc(Cl)c2)o1 (stereo not shown),-3.32%
10,CCOc1ccc(N2C(=O)CC(N(CCc3ccc(OC)cc3)C(C)=O)C2=O)cc1 (stereo not shown),0.431%
11,CC(C)C[C@H](NC(=O)OCc1ccccc1)C(=O)N[C@@H](CCc1ccccc1)C(=O)C[N+](=O)[O-],7.72%
12,Cc1cc(C)c2c(n1)nn1c(C3CC3)cc(C(F)(F)F)nc21,2.54%
13,Cc1cc(C)c(Cn2c3ccccc3c3cnn(CC(=O)NC(C)C)c(=O)c32)c(C)c1,-5.19%
14,Cc1ccc2c(c1)C1(C(=O)N2)C(C#N)=C(N)OC2=C1CCN2 (stereo not shown),3.46%
15,CSc1ccc(/C=C2\N=C(c3ccc(C)cc3)OC2=O)cc1,-1.87%
16,CC1CCN(C(=O)C23CC4CC(CC(C4)C2)C3)CC1,-2.42%
17,COc1ccc(OC)c(NC(=O)C2CCN(S(=O)(=O)c3cc(Cl)ccc3Cl)CC2)c1,-0.795%
18,c1coc(CN2CCN(Cc3ccc4c(c3)OCO4)CC2)c1,-2.87%
19,Cc1ccc(C(=O)N/C(=C\C2=Cc3ccccc3OC2C)C(=O)NCc2cccnc2)cc1 (stereo not shown),2.03%
20,CC(C)C[C@H](Nc1nc(-c2ccccc2)cs1)C(=O)NCC#N,-6.46%
21,CC(NCC(O)COc1ccccc1)C1COc2ccccc2O1 (stereo not shown),-1.55%
22,O=C(c1cccnc1)N1CCN(c2ccc(Cl)cc2)CC1,2.16%
23,CC1=C(C#N)C(c2ccc(C)cc2)C2=C(O)CC(c3ccccc3)CC2=N1 (stereo not shown),2.44%
24,CCC(C(=O)NCCc1ccccc1)n1ncn2c(cc3occc32)c1=O (stereo not shown),-0.281%
25,CCCN(CC#CC(O)(c1ccccc1)C1CCCC1)CCC (stereo not shown),0.774%

row,SMILES,% Inhibition @ 10 uM
1,Cc1cccc2[nH]c(SCC(=O)N3CCOCC3)nc12,-2.22%
2,COCCCNC(=O)C1CCCN(S(C)(=O)=O)C1 (stereo not shown),-1.21%
3,CCOC(=O)N1CCC(NC(=O)c2c(C)nn(-c3ccccc3)c2-n2cccc2)CC1,1.8%
4,S=C(Nc1ccccc1)Nc1ccc2nc(S)sc2c1,39.8%
5,Cc1ccccc1/C=N/n1c(C)nnc1C,17%
6,CCOc1ccccc1C1C(C#N)=C(C)N=C2CC(c3ccc(Cl)cc3)CC(O)=C21 (stereo not shown),18.2%
7,Cc1noc(NS(=O)(=O)c2ccc(NC(=O)C3CC3c3ccccc3)cc2)c1C (stereo not shown),-6.05%
8,CSCC[C@H](NC(=O)OCc1ccccc1)C(=O)NCC#N,2.86%
9,COCC(=O)NCCCc1nc2ccccc2n1Cc1c(F)cccc1Cl,7.17%
10,CCN1C(=O)c2cccc3c(O)ccc1c23,4.22%
11,CCOC(=O)/C=C/C(=O)Nc1sc2c(c1C#N)CCCC2,-9.66%
12,OC12CCCCC1C(c1c(Cl)cccc1Cl)NCC2 (stereo not shown),-3.63%
13,Nc1c(-c2nc(-c3cccnc3)no2)nnn1-c1cccc(C(F)(F)F)c1,0.0603%
14,Cc1cc(N2C(=O)C3CCCN3C2c2ccccc2F)no1 (stereo not shown),2.9%
15,Cc1oc2ccc(O)c(CN3CCCCC3C)c2c1C(=O)OCCOc1ccccc1 (stereo not shown),0.486%
16,Clc1ccc(-n2ncc3c(NCC4CCCO4)ncnc32)cc1 (stereo not shown),-0.757%
17,Cc1cc(C)nc(NS(=O)(=O)c2ccc(NC(=O)C34CC5CC(CC(C5)C3)C4)cc2)n1,4.42%
18,CCOc1ccc(C2CC(=O)N3CN(CCO)CSC3=C2C#N)cc1 (stereo not shown),61.2%
19,O=C(CCCN1C(=O)C(c2ccccc2)Oc2cccnc21)NCCc1c[nH]c2ccccc12 (stereo not shown),-2.1%
20,Cn1nnnc1SCCNCc1c(OCc2ccc(F)cc2)ccc2ccccc12,-5.33%
21,COCC(=O)Nc1nc(-c2ccccc2)ns1,-10.6%
22,CC(=O)C1=C(Nc2ccc(Br)cc2)CC(C)(C)CC1=O,-3.46%
23,CCCC(=O)Nc1c2c(nn1-c1ccc(C)cc1)CSC2,3.06%
24,CC(CNc1nc2c(S(=O)(=O)c3ccccc3)nnn2c2ccccc12)c1ccccc1 (stereo not shown),-4.85%
25,C=CCn1c(O)c(CC)c(=O)[nH]c1=S,-3.8%

row,SMILES,% Inhibition @ 10 uM
1,CCOc1ccc(CNC(=O)C2CCN(S(=O)(=O)N3CCC4(CC3)OCCO4)CC2)cc1OC,0.514%
2,CCc1ccc(Sc2cc(C(=O)NCCN3CCOCC3)c3ccccc3n2)cc1,-1.79%
3,NC(=O)c1cccc(NC(=O)Nc2ccc(Cl)cc2)c1,2.76%
4,O=C1c2ccc(F)cc2C(=O)N1c1ccc2c(c1)OCCO2,-2.32%
5,COc1ccccc1NC(=O)c1ccc([N+](=O)[O-])cc1C(=O)O,17.9%
6,SCCNCCc1c[nH]c2ccccc12,-3.58%
7,Cc1cccc(C2CC(=O)NC3=C2C(=O)CC(c2cccs2)C3)c1 (stereo not shown),-6.14%
8,COc1nc(-c2ccccc2)cc(-c2ccccc2)c1C#N,-3.72%
9,CCOC(=O)c1c(-c2ccccc2)csc1NC(=O)c1onc(C)c1Cl,1.42%
10,CCOC(=O)c1cnc2c(OC)cccc2c1O,-2.97%
11,COc1ccc2nc(NC(=O)Cn3nc(Cc4ccncc4)c4ccccc4c3=O)sc2c1,-4.69%
12,O=C(/C=C/c1ccccc1Cl)Nc1ccc(Br)cc1,4.6%
13,Cc1ccc(S(=O)(=O)/N=S(\C)CC2CC2(Cl)Cl)cc1 (stereo not shown),-0.0626%
14,Oc1nc2sc3c(c2c2ncnn12)CCCC3,-1.69%
15,CC(C)(C)C1(O)CC(C(F)F)=NN1C(=O)c1ccccc1 (stereo not shown),1.96%
16,Cc1ccc(CNC(=O)c2cc3c(s2)-c2ccccc2S(=O)(=O)C3)cc1,-0.72%
17,CC(CNC(C)c1ccccc1)C(=O)O (stereo not shown),3.42%
18,O=C1c2ccccc2C(c2ccc(O)cc2)(c2ccc(O)cc2)N1c1ccccc1,17.4%
19,CCCCn1c(=O)c2oc3ccccc3c2n(Cc2ccccc2)c1=O,7.08%
20,Cc1ccc(C)c(OCCCn2cc(/C=C3/C(=N)N4C=CSC4=NC3=O)c3ccccc32)c1,-3.41%
21,CCOC(=O)c1cc2nc(-c3ccccc3)cc(C)n2n1,-0.267%
22,COc1ccc(NC(=O)CC(C)C)cc1NC(=O)c1ccco1,-11.5%
23,O=C(NCc1cccc2ccccc12)C1CCCO1 (stereo not shown),1.84%
24,COc1ccc(NC(=O)C(C)Oc2ccc(C)cc2)cc1 (stereo not shown),0.795%
25,CN(C)S(=O)(=O)c1ccc2nc(NC(=O)c3ccncc3)sc2c1,7.16%

row,SMILES,% Inhibition @ 10 uM
1,CCC(C(=O)NCc1ccccn1)n1nc(C)n2c(cc3sccc32)c1=O (stereo not shown),-3.35%
2,O=C1C2CCCCC2C(=O)N1Cc1cccnc1 (stereo not shown),-2.8%
3,CCCOc1c(Br)cc(Br)cc1C=C1C(=O)NC(=O)NC1=O,24.7%
4,CC(=O)c1ccc(N2CCN(Cc3cccc(C)c3)CC2)cc1,0.815%
5,CCN(CC)S(=O)(=O)c1nnc(NC(=O)c2cccc(C)c2)s1,1.68%
6,CCOC(=O)N1CCC(NC2=NS(=O)(=O)C(c3ccc(F)cc3)=C2C)CC1,-2.44%
7,CCO/C(O)=C1\C(C)=NC(=S)NC1c1c(OCC(=O)N2CCOCC2)ccc2ccccc12 (stereo not shown),-3.48%
8,CCCCn1cnc2scc(-c3ccc(OC)c(OC)c3)c2c1=O,5.09%
9,CN(C)CCN(C(=O)CN1C(=O)c2ccccc2C1=O)c1nc2ccc(Cl)cc2s1,-4.44%
10,Cc1ccc2oc(=O)c3cc(C(=O)N(C)C4CCCCC4)sc3c2c1,3.06%
11,O=C1CC(=O)N(c2ccc(Cl)cc2)C(=O)N1,0.266%
12,CC1=C(C(=O)Nc2ccccc2C)C(c2cccc(Br)c2)n2ncnc2N1 (stereo not shown),-5.92%
13,CCC(C(=O)Nc1ccccn1)c1ccccc1 (stereo not shown),1.15%
14,CCC(C)NCc1c(C)sc(C)c1CNC(C)CC (stereo not shown),-1.29%
15,CN(C(=S)NCc1ccccc1)C1CCC2(CCCCC2)CC1,-6.06%
16,COc1ccc(S(=O)(=O)N2CCC(NC(=O)NCC(C)O)CC2)cc1 (stereo not shown),3.88%
17,Cc1nc(SCC(=O)c2ccc(F)cc2)c(C#N)c(C)c1C,2.01%
18,CCC1CCCCN1C(=O)c1cc2c(s1)-c1ccccc1OC2 (stereo not shown),-1.58%
19,CCOc1cc(C2C(C#N)=C(N)OC3=C2C(=O)CC(C)(C)C3)ccc1O (stereo not shown),-4.43%
20,O=C(O)CC1C2CCCC(C2)C(=O)C1C(=O)O (stereo not shown),4.42%
21,CCC(C)NC(=O)CSc1nc2nc(C)c(Cc3ccccc3Cl)c(C)n2n1 (stereo not shown),7.99%
22,Cc1ccccc1C(=O)N1CCN(c2cccc(C)c2C)CC1,5.24%
23,Cc1nn(CC(=O)NCCc2nc3ccccc3[nH]2)c(C)c1Br,-2.28%
24,Cc1ccc(C(C#N)NC(=O)C(Cc2c(F)cccc2F)NC(=O)c2ccc(-c3ccccc3Cl)cc2)o1 (stereo not shown),-1.82%
25,CCOc1ccc(NC(=O)c2cccc([N+](=O)[O-])c2)cc1,0.317%
